# In PubChem BioAssay AID1345082 (National Center for Advancing Translational Sciences (NCATS), 2018):
# The whole screen tested about 94,000 compounds, of which about 4,000 (4.3%) were called active. The shares of active, inactive and inconclusive entries below differ from those in the screen. The call rests on the fitted dose curve; in most records, active means well fitted inhibition curve with a large enough effect; inconclusive means small, poorly fitted or top-dose-only effect; inactive means no such curve, though single readings can be large or run the other way. Potencies beside an inconclusive call are fits to weak or partial responses and may not hold up.
# Assay: Cytotoxic Profiling in NIH 3T3 Cell Line of Diverse Libraries Using Quantitative High-Throughput Screening; further: nearly all actives have a fitted effect of over 55% in size
# Settings: NIH 3T3 viability, CellTiter-Glo ATP luminescence, 48-72 h; series mostly up to 96.7 µM
# Outline: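 Cytotoxicity was measured by CellTiter-Glo ATP luminescence after 48 or 72 h compound exposure at 37 °C. Mouse NIH 3T3 fibroblasts were seeded at 400 cells/well and dosed by 23 nL pin transfer.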
# Potency means the concentration at half of the fitted maximal effect; tags describe the fitted curve by direction and shape.
row,Structure (SMILES),Potency
1,O=C(NC[C@H]1OC[C@@H](NC2CCCC2)[C@@H]1O)Nc1ccccc1,inactive
2,O=C(Nc1ccc(Cl)cc1)N1CCCC(c2nn(-c3ccc(Cl)cc3)c(=O)[nH]2)C1 (configuration not stated),"inconclusive: 50.1 µM [inhibitor, partial curve, poor fit]"
3,COc1cc(Cl)cc(CN2CCC3(CCCNC3)C2)c1OC (configuration not stated),"inconclusive: 56.2 µM [inhibitor, partial curve, poor fit]"
4,CC(=O)N1CCC2(CC1)CN(C(=O)Cc1ccc(Cl)cc1)CCO2,inactive
5,CCN1C(=O)C2CC3(CCN(S(=O)(=O)c4cccc5nsnc45)CC3)CN2C1=O (configuration not stated),inactive
6,CN(c1ccccc1)c1ccc2nnc(-c3cc(C(=O)Nc4ccccn4)ccn3)n2n1,"inconclusive: 6.31 µM [inhibitor, full curve, poor fit]"
7,Cc1ccc(CN2C[C@@H](CO)[C@H](NC(=O)c3ccccc3)C2)nc1,"inconclusive: 70.8 µM [inhibitor, single point]"
8,CC(=O)Nc1ccc(CN2CC(N3CCc4ccccc43)C2)cc1,inactive
9,O=C(NCc1ccc(Cl)cc1)C1Cn2cccc2C(=O)N1Cc1cccnc1 (configuration not stated),inactive
10,COc1ccc(N2CC(c3noc(-c4cc(OC)c(OC)c(OC)c4)n3)CC2=O)cc1 (configuration not stated),"inconclusive: 44.7 µM [inhibitor, partial curve, poor fit]"
11,COc1ccc(-c2nnc3n2CCN(C(=O)Nc2ccc(Cl)cc2)C3)cc1,"inconclusive: 44.7 µM [inhibitor, partial curve, poor fit]"
12,CC1=C[C@@H](CN(C)Cc2cccnc2)[C@H](C(C)C)C[C@H]1Cc1nnc(-c2ccc([N+](=O)[O-])cc2)o1,active: 15.8 µM
13,Cn1ccc(C(=O)N2CCC3(CC2)OC(=O)N(Cc2ccccc2C#N)C3(C)c2ccccc2)n1 (configuration not stated),"inconclusive: 44.7 µM [inhibitor, partial curve, poor fit]"
14,COc1ccc(CNC[C@H]2O[C@H](Cc3cc(-c4ccc(OC)cc4)on3)CC[C@@H]2O)cc1,"inconclusive: 56.2 µM [inhibitor, partial curve, poor fit]"
15,Cc1ccc(C(=O)NC2CCN(C(=O)c3ccc(-c4ncccc4C#N)cc3)CC2)cc1,inactive
16,CCC(C)NC(=O)CC1=CSC2=NC(C)=C(C(=O)OC)C(c3cccc([N+](=O)[O-])c3)N12 (configuration not stated),inactive
17,O=C1CCN(Cc2ccncc2)CCCC(C(=O)Nc2cccnc2)CCN1 (configuration not stated),inactive
18,CN(CC1CCOC1)C(=O)Nc1ccc(Cl)cc1F (configuration not stated),inactive
19,Cc1ccc(CN2CCc3nc(C(=O)Nc4cccnc4)oc3CC2)cc1,"inconclusive: 28.2 µM [inhibitor, full curve]"
20,c1cc(CN2CCc3c(sc4ncnc(N5CCOCC5)c34)C2)ccn1,"inconclusive: 70.8 µM [inhibitor, single point]"
21,O=C(COc1ccccc1)NC1CCCN(c2cc(-c3ccc(F)cc3)[nH]n2)C1 (configuration not stated),"inconclusive: 44.7 µM [inhibitor, partial curve, poor fit]"
22,Cc1c(-c2ccc(F)cc2)[nH]c2ccc(CNC(=O)CCN3CCCO3)cc12,"inconclusive: 44.7 µM [inhibitor, partial curve]"
23,CCNC(=O)Cc1c[nH]c2ncc(-c3ccccc3C)cc12,"inconclusive: 31.6 µM [inhibitor, full curve]"

row,Structure (SMILES),Potency
1,O=C(NCc1nnc2c(-c3nc(C4CC4)no3)cccn12)c1cc(F)ccc1Cl,inactive
2,COCCN1CCN(C[C@@H]2C=C(C)[C@H](Cc3nnc(C)o3)C[C@H]2C(C)C)CC1,"inconclusive: 100 µM [inhibitor, partial curve]"
3,CCOc1ccc(C(=O)Nc2ccc3ncnc(N4CCCCC4)c3c2)cc1,"inconclusive: 44.7 µM [inhibitor, partial curve, poor fit]"
4,Cn1ncc2c(C(=O)NCc3cccnc3)cc(-c3cccc(F)c3)nc21,"inconclusive: 35.5 µM [inhibitor, partial curve]"
5,Cc1ccc(-c2ccccc2CN2CCN([S+](C)(=O)[O-])CC2)cc1Cl,"inconclusive: 50.1 µM [inhibitor, partial curve, poor fit]"
6,Cc1cccc(-n2nc(C)c(CCC(=O)NC3CC3)c2Oc2ccc(F)cc2F)c1,"inconclusive: 70.8 µM [inhibitor, single point]"
7,O=C(c1ccco1)N1CCC(n2cc(-c3nc(-c4ccccc4)no3)nn2)C1 (configuration not stated),"inconclusive: 44.7 µM [inhibitor, partial curve, poor fit]"
8,Cc1nn(-c2ccccc2)c2c1C(C1CC1)N(C1CCN(Cc3cc(Cl)cc(Cl)c3)CC1)C2=O (configuration not stated),inactive
9,O=C(NCC1CCCN(S(=O)(=O)c2ccc3c(c2)OCCO3)C1)c1cccs1 (configuration not stated),"inconclusive: 50.1 µM [inhibitor, partial curve, poor fit]"
10,CN(C)C(=O)N1CCCC1C(=O)N1CCC(c2nc3ccncc3[nH]2)C1 (configuration not stated),inactive
11,CCCc1ccc(S(=O)(=O)N2CCC(c3c[nH]c4c(C)cccc34)CC2)cc1,"inconclusive: 35.5 µM [inhibitor, partial curve]"
12,Cc1ccc([S+](=O)([O-])c2nnn3c2nc(NCc2ccncc2)c2ccccc23)cc1,inactive
13,O=C(CCC[C@H]1NC[C@@H]2C[C@H]1CN(Cc1ccccc1)C2)N1CCN(c2ncccn2)CC1,inactive
14,O=C(C1CCN([S+](=O)([O-])c2cccc(C(F)(F)F)c2)CC1)N1CCC(N2CCOC2=O)CC1,inactive
15,Cn1cc(-c2cc3c(ccn3C)c(C(=O)NCCc3cnc[nH]3)n2)cn1,"inconclusive: 56.2 µM [inhibitor, partial curve, poor fit]"
16,Cc1noc(-c2ccn3c(CNC(=O)c4ccccn4)nnc3c2)n1,inactive
17,Cc1ccc(C(=O)N2CCC3(CCCN(Cc4cccc(F)c4F)C3)C2)s1 (configuration not stated),"inconclusive: 89.1 µM [inhibitor, partial curve, poor fit]"
18,COCCn1ncc(N2CCCC(CC(=O)NCc3cccs3)C2)cc1=O (configuration not stated),inactive
19,Cc1ccc(CCC(=O)N2CC[C@@](O)(C3CCOCC3)[C@H](C)C2)cc1,inactive
20,CCNC(=O)c1cccnc1OC1CCN(C(=O)c2cc(C)ccc2C)C1 (configuration not stated),inactive
21,COc1ccc(NC(=O)N2Cc3[nH]cnc3C[C@H]2c2nc(-c3ccc(OC)cc3)no2)cc1,"inconclusive: 89.1 µM [inhibitor, single point]"
22,COc1ccc(OC)c(NC(=O)c2cc(-c3ccc[nH]3)n[nH]2)c1,active: 44.7 µM
23,N#Cc1cccc(CN2Cc3[nH]cnc3C[C@H]2c2nc(-c3ccc(OC(F)(F)F)cc3)no2)c1,"inconclusive: 50.1 µM [inhibitor, partial curve, poor fit]"

row,Structure (SMILES),Potency
1,CCOCC(=O)N1[C@@H]2CC[C@H]1CC(NC(=O)c1cnc(C)cn1)C2 (some centres not stated),inactive
2,COCCN1CCNc2nc(COc3ccc(C(C)C)cc3)n(Cc3ccccc3)c2C1=O,"inconclusive: 44.7 µM [inhibitor, partial curve, poor fit]"
3,CN1CCC(OC2CCN(C(=O)COc3ccc(Cl)cc3)CC2)CC1,"inconclusive: 44.7 µM [inhibitor, partial curve, poor fit]"
4,CC(=O)N1CCC2(CC1)OC(=O)N(Cc1ccccc1)C2(C)c1ccccc1 (configuration not stated),active: 25.1 µM
5,COCc1ccc2c(c1)c(OC(C)(C)C(=O)NC1CCC(O)CC1)nn2Cc1ccccc1 (configuration not stated),active: 39.8 µM
6,O=C(C[C@H]1NC(=O)c2ccccc2NC1=O)Nc1n[nH]c(CCC2CCCC2)n1,"inconclusive: 79.4 µM [inhibitor, single point]"
7,COc1cccc(-c2ccc(C(=O)N3CCC(N[S+](=O)([O-])c4cccc(C(F)(F)F)c4)CC3)cc2)c1,"inconclusive: 11.2 µM [inhibitor, full curve, poor fit]"
8,COc1ccccc1NC(=O)Nc1ccnn1C1CCN(C(=O)CN)CC1,inactive
9,O=C(NCc1ccccc1)c1nc2c(o1)CCN(CC1CCCC1)CC2,"inconclusive: 112 µM [inhibitor, partial curve, poor fit]"
10,COc1cccc(NC(=O)[C@@H]2C[C@@H](c3cccc(C(F)(F)F)c3)N(CC3CCOCC3)C2)c1,"inconclusive: 31.6 µM [inhibitor, full curve]"
11,COc1cc(CC(=O)N2Cc3[nH]cnc3CC2C(=O)O)cc(OC)c1OC (configuration not stated),inactive
12,CCn1c(CC2CCN(Cc3ccccc3C#N)CC2)nn(C)c1=O,inactive
13,CN(C)C(C(=O)N(Cc1cccc(O)c1)C1CC1)c1ccccc1F (configuration not stated),inactive
14,CCN1c2cc(C(=O)Nc3ccc(F)c(F)c3)ccc2C(=O)N2CCCCCC21 (configuration not stated),"inconclusive: 44.7 µM [inhibitor, partial curve, poor fit]"
15,Cc1nn(-c2ccccc2)c2c1C(C)N(C1CCN(C(=O)C3CC3)CC1)C2=O (configuration not stated),"inconclusive: 70.8 µM [inhibitor, single point]"
16,O=C(NCc1ccccc1F)c1ccc2oc(-c3cccnc3Cl)nc2c1,"inconclusive: 35.5 µM [inhibitor, partial curve]"
17,Cc1nn(-c2ccccc2[N+](=O)[O-])c(C)c1[C@@H]1C=C[C@@H](NCc2ccco2)C1,"inconclusive: 112 µM [inhibitor, single point]"
18,Cc1cc(Cn2cc3c4c(cccc42)[C@H](CC(C)C)N[C@H](C(=O)NC2CCCC2)C3)no1,active: 31.6 µM
19,CCn1cc(-c2ccccc2)cc1C(=O)NC1CCCC1,inactive
20,NC(=O)c1cccnc1OC1CCN(Cc2ccc[nH]2)CC1,inactive
21,Cc1ccc(-n2c(C3CCN(C(=O)c4ccc(Cl)cc4)CC3)n[nH]c2=O)cc1,"inconclusive: 5.62 µM [inhibitor, full curve, poor fit]"
